Data reported in PubChem BioAssay (NCI).
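Each compound was tested at five concentrations against cells in 96-well plates for 48 hours. GI50 = concentration required for 50% inhibition of growth. At the TGI there is no net growth.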 Peptide text beside a SMILES is read from it. * marks the point of attachment. Fmoc = O=C(OCC1c2ccccc2-c2ccccc21)*; OBn = c1ccc(CO*)cc1; tBu = CC(C)(C)*

These molecules were tested on NCI-H322M lung (assay: NCI-60 cell line screen, 48 h).

Row | Structure (SMILES) | TGI [µM] | GI50 [µM]
1 | FC(F)(Sc1ncccn1)c1nc2ccccc2o1 | > 100 | –
2 | CC1CC[C@@]2(OC1)OC1C[C@H]3[C@@H]4CC=C5C[C@@H](OC6OC(CO)C(OC7OC(CO)C(O)C(O)C7O)C(O)C6OC6OC(C)C(O)C(O)C6O)CC[C@]5(C)[C@H]4CC[C@]3(C)C1[C@@H]2C (some centres not stated) | 2.67 | –
3 | COc1cc(/C=C/C(=O)/C=C/c2ccc(-n3ccnc3)cc2)ccc1O | 30.8 | 10.6
4 | O=[N+]([O-])/C=C/c1cn(CCCCCCCCn2cc(/C=C/[N+](=O)[O-])c3ccccc32)c2ccccc12 | > 10 | –
5 | COc1ccc(Nc2nc(N)c(C(=O)c3ccco3)s2)cc1 | > 100 | –
6 | CCOC(=O)C(NC(=O)c1ccccc1)(Nc1ccc(S(=O)(=O)Nc2cc(C)on2)cc1)C(F)(F)F (configuration not stated) | > 100 | –
7 | O=C(CN1CCCC1)Nc1ccc2c(c1)C1Oc3ccccc3CC1CO2 (configuration not stated) | > 100 | –
8 | c1ccc2c(c1)ccc1cc3cc(NCCCCNc4ccc5nc6c(ccc7ccccc76)cc5c4)ccc3nc12 | 3.2 | –
9 | Cc1cc(S(=O)(=O)NC2=NCc3c(F)cccc3N2)c(S)cc1Cl | > 100 | –
10 | N=C(N)c1ccc(N=Nc2c(O)c(C(=O)Nc3ccccc3)cc3ccccc23)cc1 | > 100 | –
11 | CC(C)(C)c1cc(C(C)(C)C)c2sc(=O)oc2c1O | 29.8 | –
12 | COc1ccc(S(=O)(=O)NNS(C)(=O)=O)cc1OC | > 100 | –
13 | CN(C)CN(C)c1nc(N(C)C)nc(N(C)C)n1 | > 100 | –
14 | Cc1cc(C)nc(NS(=O)(=O)c2ccc(NC(=O)c3ccc4nc5ccccc5c(Nc5ccc(S(=O)(=O)N=C(N)N)cc5)c4c3)cc2)n1 | > 100 | –
15 | C=C(C)C1CCC2(C)C1CCC1(C)C2CCC2C3(C)C4OC(OC4=O)C(C)(C)C3CCC21C (configuration not stated) | > 100 | –
16 | CCCCCCCCCCCCCCCCOC[C@H](COC(c1ccccc1)(c1ccccc1)c1ccccc1)O[P+](=S)OC (some centres not stated) | > 100 | –
17 | CC[P+](c1ccccc1)(N(C)C)N(C)C | > 100 | –
18 | COc1cc(-c2ccc[nH]2)[nH]c1/C=C1\N=C(C)C(C(=O)NC(C)C)=C1C | 27.1 | 11.7
19 | CC(C)(C)[C@H]1NC(=O)CN1C(=O)OCc1ccccc1 | > 100 | –
20 | O=C1Cc2c([nH]c3ccccc23)-c2cc(Br)ccc2N1 | > 100 | –
21 | C[C@]12CC[C@H]3[C@@H](CCC4=C/C(=N/OCCN5CCCCC5)CC[C@@]43C)[C@@H]1CC[C@@H]2O | 51 | –
22 | O=C(Nc1ccc(-n2cc(-c3ccncc3)c(-c3ccc(Cl)c(O)c3)n2)cc1)c1ccc(Cl)c(Cl)c1 | > 100 | > 100
23 | O=C(O)c1cc2ccc(Cl)cc2c(O)c1C1=CCCCC1 | > 100 | –
24 | CCOC(=O)NC(Nc1ccc(C(=O)O)cc1)(C(F)(F)F)C(F)(F)F | > 100 | –
25 | CCOc1ccccc1NC(=O)C1=C(C)NC(C)=C(C(=O)Nc2ccccc2OCC)C1c1ccc2c(c1)OCO2 | > 100 | –

Row | Structure (SMILES) | TGI [µM] | GI50 [µM]
26 | Cc1cc(C)n(C(C)(C(=O)Cc2ccccc2)n2nc(C)cc2C)n1 | > 100 | –
27 | CNC(=O)N(CCCCC(NC(C)=O)C(=O)NCc1ccccc1)Cc1ccccc1 (configuration not stated) | > 100 | –
28 | c1ccc(CN2CCC(CNc3ncnc4ccccc34)C2)cc1 (configuration not stated) | > 100 | –
29 | Nc1ccc2c3c1cccc3c(=O)n1c3ccc(Cc4ccc5c(c4)nc4c6ccc(N)c7cccc(c(=O)n54)c76)cc3nc21 | > 100 | –
30 | O=[N+]([O-])/C(=C/C=C/c1ccccc1)c1ccccc1 | 10.7 | 3.13
31 | Clc1ccc(C2=CC(c3ccccc3)N3C(=N[C@H]4CCCC[C@@H]43)N2)cc1 (some centres not stated) | 17.5 | –
32 | Nc1nc2c([nH]1)c1[nH]c3ccccc3c1c1[nH]c3ccccc3c21 | 21.6 | 10
33 | CCOC(=O)/C=C(/OCC)[C@@H]1C(C(=O)c2ccc(Cl)cc2)[C@@H]1/C(=C\C(=O)OCC)OCC (some centres not stated) | > 100 | –
34 | CC1(C)O[C@@H](CCl)C[C@@H](C#N)O1 | > 100 | –
35 | COc1cc(COC(=O)N(C)[C@@H](Cc2ccccc2)C(=O)O)c([N+](=O)[O-])cc1OC | > 100 | –
36 | CC1CC(C)(C)CC(OCCN2CCCCC2)(c2ccccc2)C1 (configuration not stated) | 22.6 | –
37 | c1ccc(-c2nc3ccccc3[nH]2)c(OCCCCCOc2ccccc2-c2nc3ccccc3[nH]2)c1 | 31.4 | 12.2
38 | O=C(Nc1c(Cl)cc([N+](=O)[O-])cc1Cl)C(=O)C(C(=O)c1ccncc1)C1OC(=O)c2ccccc21 (configuration not stated) | > 100 | –
39 | COc1cc([C@H]2c3cc4c(cc3[C@H](NCc3ccc(F)cc3)C3COC(=O)[C@H]32)OCO4)cc(OC)c1O (some centres not stated) | > 100 | –
40 | CC(=O)CCN1CC2CN=NC2(C#N)C1 (configuration not stated) | > 100 | –
41 | C=C1CCC2C(C)(CO)C(O)CCC2(C)C1C/C=C1\C(=O)OCC1O (configuration not stated) | > 100 | –
42 | CN1CCN(Cc2ccc(C(=S)Nc3ccccc3)s2)CC1 | > 100 | –
43 | CC(OC(C)(C)C)C(NC(=O)OCC1c2ccccc2-c2ccccc21)C(=O)NC(Cc1ccccc1)C(=O)OCc1ccccc1 (configuration not stated) (Fmoc-Thr(tBu)-Phe-OBn; configuration not given here) | > 100 | –
44 | CN(C)CCCNC(=O)N/N=C/c1ccccn1 | > 10 | –
45 | CC1(C)N=C(N)N=C(N)N1c1ccc(CCCCCCc2ccc(S(=O)(=O)F)cc2)cc1 | 17.2 | –
46 | O=C([CH-]C(=O)c1ccccc1)c1ccccc1.[CH2-]C.[CH2-]C.[Tl+3] | > 100 | 22.7
47 | Cc1cc(C)c(C2=NO[C@@H]3[C@H]2C(=O)C=C2N(Cc4ccccc4)CCO[C@@]23O)c(C)c1 | > 100 | –
48 | N#Cc1cc2c(n(C3OC(CO)C(O)C(O)C3O)c1=S)CCC2 (configuration not stated) | > 100 | –
49 | Cc1c(C)c2c(c(N)c1C#N)C(=O)N(NC(=S)Nc1ccccc1)C2=O | > 100 | –
50 | C#CCN(CCCOc1ccc(Cl)cc1Cl)CCCSC(=O)CCCCCN1/C(=C\C=C2/CCCC(/C=C/C3=[N+](CCCCCC(=O)[O-])c4ccccc4C3(C)C)=C2Cl)C(C)(C)c2ccccc21 | 10.9 | 3.01

Row | Structure (SMILES) | TGI [µM] | GI50 [µM]
51 | O=C(/C=C/c1ccccn1)c1ccccc1 | 32.2 | 15.6
52 | c1ccc2c(c1)n1nnnc1c1nnnn21 | > 100 | –
53 | CC1(O)CC23CC(O)C4(O)C(CC(O)C4(C)C)C(C)(O)C2CCC1C3O (configuration not stated) | > 100 | –
54 | CCOC1OC(C)(C=C(C#N)C#N)CCC1C (configuration not stated) | > 100 | –
55 | O=C(NCCOC(=O)CCCCCCCCC(=O)OCCNC(=O)NC(=O)c1cn(Cc2ccccc2)c(=O)[nH]c1=O)NC(=O)c1cn(Cc2ccccc2)c(=O)[nH]c1=O | > 100 | –
56 | Cc1nc(Nc2ccc(Cl)c(Cl)c2)sc1C(/C=C/c1ccc2c(c1)OCO2)=N/Nc1ccc([N+](=O)[O-])cc1[N+](=O)[O-] | > 100 | –
57 | CC(C)NC(=O)OCCN=C1c2ccccc2C(Br)C(Br)c2ccccc21 (configuration not stated) | 72.3 | –
58 | CC(CSc1nc2c(c(=N)n1-c1ccccc1)c(=S)n(-c1ccccc1)c(=S)n2-c1ccccc1)CN(C)C (configuration not stated) | 4.19 | –
59 | Cc1c(C(=O)/C=C/c2ccc3c(c2)OCO3)[n+](=O)c2ccccc2n1[O-] | > 100 | –
60 | CSC1=C(C)C(/C=N/Nc2ccc([N+](=O)[O-])cc2)=C(C)N(c2ccccc2)S1(=O)=O | > 100 | –
61 | COC1CCC(OS(C)(=O)=O)C(C)O1 (configuration not stated) | > 10 | –
62 | CC1OC23CCCCC2C(C#N)(C#N)C1(C#N)C(=N)O3 (configuration not stated) | > 100 | –
63 | O=c1[nH]c(NCCCCCO)nc2nc[nH]c12 | > 100 | –
64 | CN1CCC(C(=O)Nc2n[nH]c3nnc(-c4ccccc4)cc23)CC1 | > 25 | > 25
65 | Cc1ncc([N+](=O)[O-])n1CCOc1ccc(C(=O)/C=C/c2ccc(C(F)(F)F)cc2)cc1 | 6.41 | 2.26
66 | O=c1c2ccccc2n2nnc3ccc(NCCNCCO)c1c32 | 6.13 | –
67 | COc1cc(C2C3=C(NC(=O)C2C#N)c2ccc4ccccc4c2OCC3)cc(OC)c1OC (configuration not stated) | > 100 | –
68 | OCCN1CCCN(CCCN2c3ccccc3Sc3ccc(C(F)(F)F)cc32)CC1 | 20.1 | 6.02
69 | CC(C)(C)OC(=O)CC(S(=O)(=O)c1ccccc1)S(=O)(=O)c1ccccc1 | > 100 | > 100
70 | COc1cc(OC)c(OC)cc1/C=C\c1ccnc2ccccc12 | > 100 | –
71 | N#Cc1nc(-c2ccsc2)oc1N | > 100 | –
72 | CCOC(=O)CCC(C(=O)OCC)n1nnc2cc(Nc3c(C)[n+]([O-])c4cc(Cl)ccc4[n+]3[O-])ccc21 (configuration not stated) | > 100 | –
73 | O=c1ccc(=O)c2c1c1[nH]c3ccccc3c1c1c(=O)c3ccccc3c(=O)c21 | > 10 | –
74 | CNc1ccc(CSc2ccc(C)cc2)cc1 | > 100 | 26.9
75 | Clc1ccc(/C=C/c2csnn2)cc1 | > 100 | –

Row | Structure (SMILES) | TGI [µM] | GI50 [µM]
76 | COc1ccc2c(c1)CCC1C2CCC2(C)C(NC(=O)CCCCC3CCSS3)CCC12 (configuration not stated) | > 100 | 67.8
77 | CN(Cc1cnc2nc(N)nc(N)c2n1)c1c(Cl)cc(C(=O)NC(CCC(=O)O)C(=O)O)cc1Br (configuration not stated) | > 100 | < 0.01
78 | CCOc1ccc(N=Nc2c(-c3ccccc3)nn(C(=O)CC(=O)Nc3ccccc3Cl)c2-c2ccccc2)cc1 | > 100 | –
79 | Cc1nc2sc(C(=O)Nc3cccc(Cl)c3)c(N)c2cc1C(O)c1ccccc1 (configuration not stated) | 18.4 | 2.98
80 | O=c1[nH]c2ccccc2c(=O)n1/N=C\c1ccccc1O | > 100 | –
81 | CCN(CCCl)c1cc(CN(C)C)cc(NC(=O)c2ccc(C(=O)Nc3cccc(N(CCCl)NN)c3)cc2)c1 | 0.642 | –
82 | COc1ccc(C2=NOC3=c4ccccc4=CSC3=C2c2ccccc2)cc1 | > 100 | > 100
83 | O=[N+]([O-])C(/C=C(\Cl)[N+](=O)[O-])=C(Nc1ccccc1)Nc1ccccc1 | 31.7 | –
84 | Cc1cc(Br)c(O)c(-c2cscn2)c1 | 90 | –
85 | C/C(=C\C(=O)O)C(=O)N(C)c1ccccc1I | > 100 | –
86 | CC1=NN(C(=O)CC(=O)Nc2cccc(C)c2)C(=O)C1N=Nc1ccc(C(=O)O)cc1 (configuration not stated) | > 100 | –
87 | CN(C)CC(=O)N1CCc2c([nH]c3ccccc23)C1c1cccnc1 (configuration not stated) | > 100 | –
88 | CCOC(=O)NCC(=O)NCC(=O)NCC(N)=O | > 100 | –
89 | CSc1ccc2c(c1)N(CCCN(C)C)c1ccccc1S2 | 27.1 | –
90 | Cn1cc(C2=C(c3cccc([N+](=O)[O-])c3)C(=O)NC2=O)c2ccccc21 | > 25 | 11.5
91 | CCCCCCCCCCCCCCCC[N+](C)(C)CCl | 30.6 | –
92 | COc1ccc(C2CC(c3cccc(Nc4ccncc4)c3)=NN2c2ccccc2)cc1 (configuration not stated) | 7.61 | 2.53
93 | Nc1ncnc2c1ncn2C1C(O)C=C(CO)C1O (configuration not stated) | > 625 | –
94 | O=C(N[C@H]1CC2(C=C(I)C(=O)C(I)=C2)OC1=O)OCc1ccccc1 | > 100 | –
95 | CCOC(=O)CSc1nc(-c2ccc(Cl)cc2)c(C#N)c(=O)[nH]1 | > 100 | –
96 | Cc1ccc(/C=C2\CCCC(C(NO)c3ccc(C)cc3)C2=NO)cc1 (configuration not stated) | 33.3 | –
97 | O=C(c1ccccc1)C1C(c2ccccc2[N+](=O)[O-])N1C1CCCCC1 (configuration not stated) | 28.9 | –
